# Data: PubChem BioAssay AID504832 (National Center for Advancing Translational Sciences (NCATS), 2011)
# Hit rate of the full screen: of about 310,000 compounds, about 18,000 (5.8%) were called active. Inconclusive means that the source gave no clear call. Such entries were picked first, then a sample of the others. Calls follow the shape of the dose curve; as a rule, active = well fitted inhibition curve with a large enough effect; inconclusive = small, poorly fitted or top-dose-only effect, or another doubt; inactive = no such curve, though single readings can be large or run the other way. Potencies of inconclusive entries are left out as doubtful fits.
# Assay: Primary qHTS for delayed death inhibitors of the malarial parasite plastid, 48 hour incubation
# Conditions: P. falciparum luciferase growth in erythrocytes; series mostly up to 28.7 µM; activity change, negative = inhibition: at the top concentration
# Method in brief: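 Luciferase-expressing P. falciparum in infected erythrocytes (2% hematocrit, 0.1% parasitemia final) in RPMI 1640/0.5% Albumax were exposed to compound for 48 hours at 37 C, 5% CO2; growth read as luminescence.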
# % is scaled to controls: 0 for no effect and ±100 for the full control effect; potency is read from the fitted curve at half-maximal effect; tags tell the direction and shape of the fitted curve.
Structure (SMILES),Potency,"activity change, negative = inhibition"
O=C(c1ccc(Br)o1)N1N=C(c2ccc(Cl)cc2)CC1c1ccco1 (stereo not drawn),"inconclusive [inhibitor, partial curve]",
CCOC(=O)CCCCC(=O)c1[nH]c(=O)[nH]c1C[n+]1ccccc1,"inconclusive [inhibitor, partial curve]",
O=[N+]([O-])c1cc(C(F)(F)F)ccc1NC1CCN(Cc2ccccc2)CC1,active: 7.38 µM,
COc1cc(C(=O)NCc2nc(C)cs2)ccc1OC1CCN(C(C)=O)CC1,,inactive: -7.68%
COCC(C)NC(=O)COc1ccc(Cl)cc1Cl (stereo not drawn),"inconclusive [inhibitor, partial curve]",
CC(C)N1CCc2c(sc(NC(=O)CCS(=O)(=O)c3ccccc3)c2C(N)=O)C1,"inconclusive [inhibitor, single point]",
C[C@@H]1CCC2[C@@H](C)[C@@H](O)O[C@@H]3O[C@@]4(C)CC[C@@H]1[C@@]23OO4 (stereo partly drawn),active: 0.0005 µM,
O=C(C1CCCCN1S(=O)(=O)c1ccccc1)N1CCCCC1 (stereo not drawn),"inconclusive [inhibitor, full curve, poor fit]",
CC(=O)Nc1ccc(OCC(O)CN2CCN(c3cc(Cl)ccc3C)CC2)cc1 (stereo not drawn),"inconclusive [inhibitor, partial curve]",
COc1ccc(C(c2nnnn2C2CCCCC2)N2CCN(c3ccc(OC)cc3)CC2)cc1 (stereo not drawn),active: 11.7 µM,
COc1ccc(N2CCN(C(=O)COC(=O)CCc3ccccc3OC)CC2)cc1,,inactive: -7.16%
Cc1onc(-c2ccccc2)c1-c1n[nH]c(=S)n1-c1ccccc1Cl,,inactive: -3.55%
CC(C)CNC(=O)c1c(N)n(/N=C/c2ccccn2)c2nc3ccccc3nc12,"inconclusive [inhibitor, single point]",
CCOC(=O)c1sc2nc3n(c(=O)c2c1C)CCC3,,inactive: 25.7%
COc1cc([N+](=O)[O-])ccc1NC(=O)N1CCCCCC1,"inconclusive [inhibitor, single point]",
O=C(Nc1nc2ccccc2c(=O)[nH]1)c1ccccc1SCc1ccccc1,"inconclusive [inhibitor, single point]",
CC(C)(C)CC(C)(C)NCC(=O)Nc1c2c(nc3ccccc13)CCC2,"inconclusive [inhibitor, single point]",
CCN(C(=O)COC(=O)c1cc(C)n(C2CC2)c1C)c1ccccc1,"inconclusive [inhibitor, single point]",
Cc1nn(Cc2ccc(Cl)cc2)c(C)c1NC(=O)C1CC=CCC1C(=O)O (stereo not drawn),"inconclusive [inhibitor, full curve, poor fit]",
O=C(NCc1cn(-c2ccccc2)nc1-c1ccccc1)c1cccc([N+](=O)[O-])c1,"inconclusive [inhibitor, single point]",
CC(C)(C)C(=O)NC(=S)Nc1ccc(Cl)c(C(=O)O)c1,,inactive: 21.3% [at 5.75 µM]
O=C(O)/C=C/C(=O)Nc1ccccc1SC(F)(F)C(F)(F)C(F)(F)F,,inactive: 0%
CN(C)CCN(CC1CCCN(Cc2ccccc2F)C1)C(=O)Cc1c(F)cccc1F (stereo not drawn),"inconclusive [inhibitor, single point]",
Cc1cc(C)n(-c2nc3ccccc3c(=O)n2OCC(=O)Nc2c(C)cccc2C)n1,"inconclusive [inhibitor, single point]",
Cc1cc(C)cc(OC(=O)CCN2C(=O)c3ccccc3C2=O)c1,"inconclusive [inhibitor, single point]",

Structure (SMILES),Potency,"activity change, negative = inhibition"
COc1ccccc1CCNC(=O)c1cc(-c2ccncc2)nc2ccc(Br)cc12,"inconclusive [inhibitor, single point]",
O=C(NC1CCCC1)C1CCCN(C(=O)Nc2ccccc2)C1 (stereo not drawn),,inactive: 11.2%
Cc1cc([N+](=O)[O-])nn1CC(=O)NCCc1c[nH]c2ccccc12,"inconclusive [inhibitor, full curve, poor fit]",
CCOC(=O)c1ccccc1NC(=S)N1CCCCC1,,inactive: 0%
Cc1nn(C)c(NC(=O)c2ccccc2Cl)c1Br,,inactive: -4.9%
O=C(c1cccc(S(=O)(=O)N2CCCC2)c1)c1cccc(S(=O)(=O)N2CCCC2)c1,"inconclusive [inhibitor, single point]",
Cc1cc(C)cc(C(=O)Nc2ccc(N3CCN(C(=O)c4ccco4)CC3)cc2)c1,"inconclusive [inhibitor, single point]",
COc1cccc(CN2CC=C(c3ccc(F)cc3)CC2)c1,,inactive: 6.31%
O=C(Cc1ccc(F)cc1)N1CCN=C1SCc1ccc([N+](=O)[O-])cc1,"inconclusive [inhibitor, partial curve, poor fit]",
C=CCOC(=O)C1=C(C)NC(SC)=C(C#N)C1c1ccc(OCC)cc1 (stereo not drawn),active: 8.28 µM,
Cn1nnc(NC(=O)CSc2ccc(Cl)cc2)n1,"inconclusive [inhibitor, single point]",
CCOC(=O)C1(Cc2ccccc2)CCCN(CCCn2cccn2)C1 (stereo not drawn),"inconclusive [inhibitor, single point]",
CN1CCN(C(c2ccc(Cl)cc2)c2cc(Cl)c3cccnc3c2O)CC1 (stereo not drawn),"inconclusive [inhibitor, partial curve]",
CC(C)CC(=O)Nc1ccc(OCC(=O)O)cc1,,inactive: -0.0551%
FC(F)(F)c1cccc(Nc2nc(N3CCCC3)nc(N3CCCC3)n2)c1,"inconclusive [inhibitor, single point]",
Cc1c(C(=O)NCCn2ccc3ccccc32)cccc1[N+](=O)[O-],"inconclusive [inhibitor, single point]",
Clc1ccc(CN=C2Nc3ccccc3CS2)cc1,,inactive: 209%
Oc1sc(C=Nc2ccc(F)cc2)c2ccccc12,active: 4.65 µM,
Cc1cc(NC(=O)CN2C(=O)CCSc3ccccc32)no1,,inactive: -0.0483%
Cc1cc(C)n(-c2ccc(C(=O)Nc3ccccc3N3CCOCC3)cc2)n1,"inconclusive [inhibitor, single point]",
O=[N+]([O-])c1c(NCCCO)cc(Sc2ccc(Cl)cc2)c2nonc12,"inconclusive [inhibitor, partial curve, poor fit]",
O=C(CN1CCc2ccccc21)NC(=O)NCc1ccco1,,inactive: 26.1%
CCN(CC)C(=O)c1ccc(NC(=O)c2cc(S(=O)(=O)N3CCCCCC3)ccc2OC)cc1,active: 7.38 µM,
CN(C)c1cccc(C(=O)N2CCCC(CCC(=O)N3CCN(c4ccccn4)CC3)C2)c1 (stereo not drawn),"inconclusive [inhibitor, partial curve]",
Cc1cc(=O)[nH]c(SCC(=O)OCc2ccccc2)c1C#N,,inactive: 60.7%

Structure (SMILES),Potency,"activity change, negative = inhibition"
Cc1csc(NC(=O)CSc2nc3[nH]ncc3c(=O)[nH]2)n1,,inactive: 18%
O=C(O)c1cc(O)c2c(c1)C(=O)c1cc(O)cc(O)c1C2=O,"inconclusive [inhibitor, partial curve, poor fit]",
COc1ccc(Cl)cc1NC(=O)COC(=O)C1CCCCC1,"inconclusive [inhibitor, single point]",
CC(NC(=O)c1ccccc1F)c1nnc(SCC(=O)Nc2nccs2)n1C (stereo not drawn),,inactive: 3.66%
CC(C)c1ccccc1NC(=O)CSc1n[nH]c(=O)n1C1CC1,,inactive: -1.16%
CC(=O)Nc1ccc(C(=O)N/N=C(\C)CC(=O)Nc2ccc(OCc3ccccc3)cc2)cc1,,inactive: 10.7%
Cn1c(SCc2cccc([N+](=O)[O-])c2)nc2c(c1=O)SCC2,"inconclusive [inhibitor, full curve]",
COc1cc2nc(=S)n3[nH]c(COc4ccccc4C)nc3c2cc1OC,"inconclusive [inhibitor, single point]",
O=C(Nc1nnc(CCN2CCCCC2)s1)C1CCCCC1,,inactive: 6.72%
Cc1cccc(C(=O)OCC(=O)NCc2ccco2)c1,,inactive: -5.44%
CSc1ccccc1C(=O)N1CCCCC1,,inactive: 24.1%
Cc1ccc(-n2ncc(C(=O)N3CCN(C(=O)c4ccco4)CC3)c2-n2cccc2)cc1,"inconclusive [inhibitor, partial curve]",
CC(C)C[C@H](NC(=O)N1CCn2c1nc1ccccc12)C(=O)NCC1CCCO1 (stereo partly drawn),,inactive: 10.9%
Cc1ccccc1NC(=O)c1ccc2c(c1)CCN2S(C)(=O)=O,,inactive: -13.9%
Cn1nc(C(F)(F)F)cc1C(=O)Nc1ccc(Cl)cc1,"inconclusive [inhibitor, partial curve, poor fit]",
O=C(c1ccnc(Cl)c1)N1CCCC(N2CCN(c3ccccc3F)CC2)C1 (stereo not drawn),,inactive: -21.3%
O=C(C1CCCN(S(=O)(=O)c2ccc(F)cc2)C1)N1CCCCCC1 (stereo not drawn),,inactive: -2.12%
O=C(Cn1cc(/C=C\[N+](=O)[O-])c2ccccc21)Nc1ccccc1,"inconclusive [inhibitor, single point]",
Cn1cnnc1SCCCN1C(=O)c2cccc3cccc(c23)C1=O,"inconclusive [inhibitor, partial curve, poor fit]",
Cc1[nH]nc2nc(SCC(=O)NCCC3=CCCCC3)n(-c3ccc(Br)cc3)c(=N)c12,"inconclusive [inhibitor, partial curve, poor fit]",
COCCCn1c(=O)c2sccc2n(Cc2cc(C(=O)OC)ccc2OC)c1=O,"inconclusive [inhibitor, partial curve, poor fit]",
CN(C(=O)Oc1ccc(Cl)c2cccnc12)c1ccccc1,"inconclusive [inhibitor, partial curve, poor fit]",
O=C(NCCCO)/C(=C/c1ccc(-c2cccc([N+](=O)[O-])c2)o1)NC(=O)c1ccccc1,"inconclusive [inhibitor, single point]",
